This is an account of results in publication PMC11445476, “CHC22 clathrin recruitment to the early secretory pathway requires two-site interaction with SNX5 and p115” (The EMBO Journal, 2024).

Amino acid sequences for entries named in this document (tags omitted). Residues count along the entry.
UniProt Q00610, residues 1-364: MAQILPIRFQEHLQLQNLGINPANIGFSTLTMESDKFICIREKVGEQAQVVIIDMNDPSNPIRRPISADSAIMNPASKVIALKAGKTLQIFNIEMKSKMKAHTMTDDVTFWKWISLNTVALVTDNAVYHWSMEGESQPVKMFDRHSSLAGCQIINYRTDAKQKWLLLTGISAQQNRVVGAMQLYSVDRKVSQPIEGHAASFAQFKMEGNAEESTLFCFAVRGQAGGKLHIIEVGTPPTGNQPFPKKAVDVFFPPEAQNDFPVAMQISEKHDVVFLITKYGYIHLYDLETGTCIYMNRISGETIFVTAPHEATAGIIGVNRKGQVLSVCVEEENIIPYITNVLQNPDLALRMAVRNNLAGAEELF
UniProt Q13596: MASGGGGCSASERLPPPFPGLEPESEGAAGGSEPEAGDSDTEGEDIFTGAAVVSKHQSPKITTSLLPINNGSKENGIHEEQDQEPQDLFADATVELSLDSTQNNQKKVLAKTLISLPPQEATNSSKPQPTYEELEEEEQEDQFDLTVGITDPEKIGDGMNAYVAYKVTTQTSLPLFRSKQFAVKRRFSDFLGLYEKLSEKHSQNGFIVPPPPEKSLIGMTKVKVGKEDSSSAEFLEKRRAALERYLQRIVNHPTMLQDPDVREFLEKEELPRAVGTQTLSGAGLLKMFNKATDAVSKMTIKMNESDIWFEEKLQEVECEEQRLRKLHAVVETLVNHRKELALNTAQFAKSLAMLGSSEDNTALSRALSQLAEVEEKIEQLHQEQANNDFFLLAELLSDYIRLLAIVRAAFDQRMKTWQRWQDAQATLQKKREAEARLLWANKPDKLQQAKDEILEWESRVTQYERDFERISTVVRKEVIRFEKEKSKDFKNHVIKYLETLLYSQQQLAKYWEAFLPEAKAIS

One assay concerns the target T1, full-length GST-p115 (UniProt O60763 1-962).
T1 construct: p115, full-length, residues 1-962, amplified from pIY119 into pGEX3; not shown: GST, N-terminal, kept
T1 sequence (looked up): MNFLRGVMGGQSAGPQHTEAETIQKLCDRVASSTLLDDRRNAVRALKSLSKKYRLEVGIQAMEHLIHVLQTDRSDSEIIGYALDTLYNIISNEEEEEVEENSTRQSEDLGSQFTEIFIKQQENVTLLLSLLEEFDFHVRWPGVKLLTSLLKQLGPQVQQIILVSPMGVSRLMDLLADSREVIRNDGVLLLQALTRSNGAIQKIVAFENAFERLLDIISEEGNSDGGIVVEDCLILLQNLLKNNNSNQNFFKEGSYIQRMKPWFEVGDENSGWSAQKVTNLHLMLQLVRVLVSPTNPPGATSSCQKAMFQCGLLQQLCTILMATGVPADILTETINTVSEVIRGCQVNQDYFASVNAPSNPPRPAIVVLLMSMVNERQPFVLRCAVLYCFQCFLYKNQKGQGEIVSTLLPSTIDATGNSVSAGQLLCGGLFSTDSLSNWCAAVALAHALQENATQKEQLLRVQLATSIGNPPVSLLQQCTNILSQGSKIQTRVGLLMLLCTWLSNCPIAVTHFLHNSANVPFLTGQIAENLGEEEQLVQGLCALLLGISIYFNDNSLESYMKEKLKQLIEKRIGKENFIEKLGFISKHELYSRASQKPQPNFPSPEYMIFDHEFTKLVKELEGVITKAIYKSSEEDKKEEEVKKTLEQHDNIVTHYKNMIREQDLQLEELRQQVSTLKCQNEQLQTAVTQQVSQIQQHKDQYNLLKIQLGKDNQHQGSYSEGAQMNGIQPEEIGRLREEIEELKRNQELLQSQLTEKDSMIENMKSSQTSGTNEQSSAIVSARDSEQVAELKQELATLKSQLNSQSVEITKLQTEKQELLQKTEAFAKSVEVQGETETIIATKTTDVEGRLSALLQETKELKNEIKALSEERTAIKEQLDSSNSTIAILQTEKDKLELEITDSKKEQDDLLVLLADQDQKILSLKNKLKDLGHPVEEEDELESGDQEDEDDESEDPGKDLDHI
The experiment in a line: pull-down; GST, GST-GGA2-HE or GST-p115 on glutathione beads, 12.5 µg purified His-bdSUMO-CHC17 TD in 250 µl CHC17 PD buffer for 60 min, immunoblot; both purified.

In assay [1] the target is CHC22 clathrin heavy chain (endogenous) (human (endogenous in HeLa and AB1190 myotubes)) (UniProt P53675). In words: co-IP; anti-CHC22 antibody with post-nuclear HeLa lysate overnight at 4 °C, protein G Sepharose, immunoblot; control parental HeLa, also ΔSNX1/2 and ΔVPS35 lines.
The target is the same in assay [2]. The experiment in a line: proximity ligation; fixed HeLa cells (control parental and ΔSNX5/6), antibodies to CHC22 and p115 with Duolink PLA probes; puncta per cell counted.
The target is the same in assay [3]. The experiment in a line: co-IP; anti-CHC22 antibody with post-nuclear HeLa lysate overnight at 4 °C, protein G Sepharose, immunoblot; control parental HeLa, also ΔSNX1/2 and ΔVPS35 lines. The source holds these as a separate data set. Background: Immunoblotting shows a protein as a band on a membrane.
Assay [4] shares this target. In words: condition: only in ΔSNX5/6 cells (SNX5 and SNX6 genes deleted); co-IP; anti-CHC22 antibody with lysate of ΔSNX5/6 HeLa cells (SNX5 and SNX6 genes deleted), protein G Sepharose, immunoblot.
The next assay deals with T2, sfGFP-ΔTD-CHC22 (human) (UniProt P53675).
T2 sequence: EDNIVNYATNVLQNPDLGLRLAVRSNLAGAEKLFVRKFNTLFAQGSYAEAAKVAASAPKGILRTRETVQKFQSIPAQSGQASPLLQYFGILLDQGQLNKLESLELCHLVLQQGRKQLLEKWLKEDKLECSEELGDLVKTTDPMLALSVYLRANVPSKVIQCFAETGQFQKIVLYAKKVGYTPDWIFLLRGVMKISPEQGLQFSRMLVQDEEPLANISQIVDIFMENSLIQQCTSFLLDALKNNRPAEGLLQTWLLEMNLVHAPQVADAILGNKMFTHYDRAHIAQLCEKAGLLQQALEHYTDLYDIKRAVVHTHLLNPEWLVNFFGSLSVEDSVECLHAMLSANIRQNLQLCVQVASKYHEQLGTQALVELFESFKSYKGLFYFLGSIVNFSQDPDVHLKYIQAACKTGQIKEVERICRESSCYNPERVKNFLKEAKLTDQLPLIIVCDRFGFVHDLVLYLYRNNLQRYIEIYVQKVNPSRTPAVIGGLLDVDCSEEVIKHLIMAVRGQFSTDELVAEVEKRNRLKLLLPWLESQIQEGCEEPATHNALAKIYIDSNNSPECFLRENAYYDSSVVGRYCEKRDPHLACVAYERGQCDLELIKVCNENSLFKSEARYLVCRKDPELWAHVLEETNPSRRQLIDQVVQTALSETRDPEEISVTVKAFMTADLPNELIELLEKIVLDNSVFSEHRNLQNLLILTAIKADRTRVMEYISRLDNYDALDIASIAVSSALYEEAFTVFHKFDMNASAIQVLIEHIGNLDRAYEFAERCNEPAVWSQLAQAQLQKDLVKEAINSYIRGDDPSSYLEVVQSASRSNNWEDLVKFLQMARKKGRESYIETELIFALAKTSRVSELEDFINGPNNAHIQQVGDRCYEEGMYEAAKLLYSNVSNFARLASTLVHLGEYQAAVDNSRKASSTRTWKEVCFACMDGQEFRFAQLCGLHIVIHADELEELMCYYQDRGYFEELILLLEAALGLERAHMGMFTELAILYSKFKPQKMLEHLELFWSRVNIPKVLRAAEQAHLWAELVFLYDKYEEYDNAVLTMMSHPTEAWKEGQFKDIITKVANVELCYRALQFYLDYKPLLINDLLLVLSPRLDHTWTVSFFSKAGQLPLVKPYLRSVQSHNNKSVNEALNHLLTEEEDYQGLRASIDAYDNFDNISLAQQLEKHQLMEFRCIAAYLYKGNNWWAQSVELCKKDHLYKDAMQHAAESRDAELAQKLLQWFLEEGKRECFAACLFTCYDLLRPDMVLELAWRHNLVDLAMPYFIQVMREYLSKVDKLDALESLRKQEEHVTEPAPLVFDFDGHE
The experiment in a line: co-IP; GFP-Trap agarose beads with lysate of HeLa cells transfected with GFP-tagged clathrin heavy chains, 1 h at 4 °C, immunoblot for GFP and p115.

The target of assay [5] is sfGFP-CHC22 wild-type (human) (UniProt P53675). Described as above.

Results are given in words; binding and its absence hold for the method and conditions named. For some of these results: Binding seen in cells or lysates may run through a third protein. Some results given as binding are weak or reduced against the parent protein; the word gives no strength. For some of these results: Where a sequence is shown, tags or fusion partners need not be part of it.

Turning to “His-SUMO-tagged CHC17 terminal domain (from UniProt Q00610 1-364) (domain or fragment)”, in the assay with full-length GST-p115, the binding result is “no binding (tested: 12.5 µg in 250 µl)”.

Consider “SNX1 (endogenous) (from UniProt Q13596 1-522)”, for which the binding result in assay [1] is given as “no binding”.

B1: p115 (endogenous) (protein, UniProt O60763 1-962)
chain: MNFLRGVMGGQSAGPQHTEAETIQKLCDRVASSTLLDDRRNAVRALKSLSKKYRLEVGIQAMEHLIHVLQTDRSDSEIIGYALDTLYNIISNEEEEEVEENSTRQSEDLGSQFTEIFIKQQENVTLLLSLLEEFDFHVRWPGVKLLTSLLKQLGPQVQQIILVSPMGVSRLMDLLADSREVIRNDGVLLLQALTRSNGAIQKIVAFENAFERLLDIISEEGNSDGGIVVEDCLILLQNLLKNNNSNQNFFKEGSYIQRMKPWFEVGDENSGWSAQKVTNLHLMLQLVRVLVSPTNPPGATSSCQKAMFQCGLLQQLCTILMATGVPADILTETINTVSEVIRGCQVNQDYFASVNAPSNPPRPAIVVLLMSMVNERQPFVLRCAVLYCFQCFLYKNQKGQGEIVSTLLPSTIDATGNSVSAGQLLCGGLFSTDSLSNWCAAVALAHALQENATQKEQLLRVQLATSIGNPPVSLLQQCTNILSQGSKIQTRVGLLMLLCTWLSNCPIAVTHFLHNSANVPFLTGQIAENLGEEEQLVQGLCALLLGISIYFNDNSLESYMKEKLKQLIEKRIGKENFIEKLGFISKHELYSRASQKPQPNFPSPEYMIFDHEFTKLVKELEGVITKAIYKSSEEDKKEEEVKKTLEQHDNIVTHYKNMIREQDLQLEELRQQVSTLKCQNEQLQTAVTQQVSQIQQHKDQYNLLKIQLGKDNQHQGSYSEGAQMNGIQPEEIGRLREEIEELKRNQELLQSQLTEKDSMIENMKSSQTSGTNEQSSAIVSARDSEQVAELKQELATLKSQLNSQSVEITKLQTEKQELLQKTEAFAKSVEVQGETETIIATKTTDVEGRLSALLQETKELKNEIKALSEERTAIKEQLDSSNSTIAILQTEKDKLELEITDSKKEQDDLLVLLADQDQKILSLKNKLKDLGHPVEEEDELESGDQEDEDDESEDPGKDLDHI
As for B1, the binding entry is reported as “binds” in assay [2]; “binds” in assay [3]; “no binding” in assay [4]; “binds” with sfGFP-ΔTD-CHC22 (human); “binds” in assay [5].
